# Measurements: PubChem BioAssay AID1030 (National Center for Advancing Translational Sciences (NCATS), 2008)
# In all, about 220,000 compounds went through this assay and about 16,000 (7.3%) were called active. Inconclusive means that the source gave no clear call. Such entries were picked first, then a sample of the others. The call rests on the fitted dose curve; in most records, active means well fitted inhibition curve with a large enough effect (not every such curve was filed as active); inconclusive means small, poorly fitted or top-dose-only effect, or another doubt; inactive means no such curve, though single readings can be large or run the other way. Potencies of inconclusive entries are left out as doubtful fits.
# Molecular target: Aldehyde dehydrogenase 1A1 (Homo sapiens) (UniProt P00352)
# Experiment: qHTS Assay for Inhibitors of Aldehyde Dehydrogenase 1 (ALDH1A1);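 on activity, negative = inhibition: plate controls were no enzyme wells and a reference inhibitor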
# Conditions: Purified ALDH1A1, NADH fluorescence, propionaldehyde substrate; series mostly up to 75.3 µM
# Potency means the concentration at half of the fitted maximal effect; tags describe the fitted curve by direction and shape.
# Sequence of UniProt P00352 (P00352 whole entry, looked up): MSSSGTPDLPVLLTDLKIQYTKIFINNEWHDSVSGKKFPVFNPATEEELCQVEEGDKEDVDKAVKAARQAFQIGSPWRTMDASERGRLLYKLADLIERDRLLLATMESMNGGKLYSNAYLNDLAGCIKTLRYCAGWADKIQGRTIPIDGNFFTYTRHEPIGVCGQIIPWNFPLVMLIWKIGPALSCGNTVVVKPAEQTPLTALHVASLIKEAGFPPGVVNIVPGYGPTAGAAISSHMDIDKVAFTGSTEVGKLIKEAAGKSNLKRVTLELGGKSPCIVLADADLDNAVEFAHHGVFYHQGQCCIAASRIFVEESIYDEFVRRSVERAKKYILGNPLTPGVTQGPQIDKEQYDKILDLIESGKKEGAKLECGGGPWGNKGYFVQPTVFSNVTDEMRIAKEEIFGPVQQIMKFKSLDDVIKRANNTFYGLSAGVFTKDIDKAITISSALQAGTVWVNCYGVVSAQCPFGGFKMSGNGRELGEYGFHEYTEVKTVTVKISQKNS
SMILES,Potency,"activity, negative = inhibition"
CCNC(=O)/C(=C/c1ccco1)NC(=O)/C=C/c1ccccc1,"inconclusive [inhibitor, single point]",–
O=C(COc1ccccc1)Nc1cccc(-c2nc3ccccc3[nH]2)c1,"inconclusive [inhibitor, single point]",–
CC1CC(=O)N(c2ccc(NCCc3ccccc3)c([N+](=O)[O-])c2)C1=O (stereo not drawn),"inconclusive [inhibitor, single point]",–
COC(=O)C(C(=O)OC)[C@@H]1c2ccccc2[C@H]2C(=C[C@@H](C)[C@H]3C(=O)N(c4ccccc4)C(=O)[C@H]32)N1C(=O)OC,"inconclusive [inhibitor, partial curve]",–
COc1ccccc1-c1cc(C(=O)N2CCCc3ccccc32)no1,"inconclusive [inhibitor, partial curve]",–
CCOC(=O)N1CCC2(CC1)C(C#N)=C(N)Oc1c2c(C)nn1-c1cccc(Cl)c1,active: 12.6 µM,–
CCN(CC)CCCC(C)NC(=O)c1cccc(S(=O)(=O)N2CCc3ccccc32)c1 (stereo not drawn),inactive,–
COc1ccc(C(=O)OCC(=O)NC(=O)NC2CCCC2)c(O)c1,"inconclusive [inhibitor, single point]",–
Cn1nnnc1Sc1ncnc2scc(-c3ccccc3)c12,inactive,–
O=C(CSc1nc(-c2ccco2)cc(C(F)(F)F)n1)NCCCn1ccnc1,"inconclusive [inhibitor, single point]",–
CSc1ccc(C(=O)C2CCCN(S(=O)(=O)N(C)C)C2)cc1 (stereo not drawn),"inconclusive [inhibitor, full curve]",–
CC1CCc2c(sc3nc(CSc4nnnn4C)[nH]c(=O)c23)C1 (stereo not drawn),"inconclusive [inhibitor, single point]",–
Cc1c(C(=O)Nc2ccc(Oc3ccccc3)cc2)sc2nc3n(c(=O)c12)CCC3,"inconclusive [inhibitor, single point]",–
COc1ccc(NC(=S)N(CCN(C)C)C(C)c2ccco2)cc1 (stereo not drawn),inactive,–
CCOC(=O)c1c(NC(=O)C[n+]2ccccc2)sc2c1CCCC2,inactive,–
Cc1ccc(S(=O)(=O)N2CCN(C(=O)CSc3nnnn3C)CC2)c(C)c1,active: 25.1 µM,–
COc1ccc(-c2nc3cnc(N4CCNCC4)nc3n(Cc3cccc(OC)c3)c2=O)cc1,"inconclusive [inhibitor, partial curve]",–
CCOc1ccc(NC(=O)c2cc3c(=O)n(C)c4ccccc4c3n2C)cc1,"inconclusive [inhibitor, partial curve]",–
Cc1cc(CN2CCCCC2)c(O)c(CN2CCCCC2)c1,–,inactive: 0.0273% [at 13.5 µM]
O=C(Nc1ccc2oc(=O)ccc2c1)c1cccnc1,"inconclusive [inhibitor, partial curve]",–
CN(C=O)CP(=O)(O)CN1CCCCC1,inactive,–
Cc1cc2ncn(-c3nnnn3-c3ccccc3)c2cc1C,"inconclusive [inhibitor, single point]",–
CSc1nc(SCCO)c2sc3nc(-c4ccco4)c4c(c3c2n1)CC(C)(C)OC4,"inconclusive [inhibitor, partial curve]",–

SMILES,Potency,"activity, negative = inhibition"
CCOC(=O)c1c(CN2CCOCC2)n(-c2ccccc2)c2cc(Br)c(OC)cc12,"inconclusive [inhibitor, single point]",–
COc1ccc(NS(=O)(=O)c2c(C)cc(C)cc2C)cc1,"inconclusive [inhibitor, single point]",–
C[C@H](NC(=O)c1ccc(Cl)c(Cl)c1)c1ccc(-c2ccccc2)cc1,–,inactive: 5.3% [at 13.5 µM]
CCN(CC)S(=O)(=O)c1ccc(NC2c3ncccc3C(=O)N2Cc2ccccc2)cc1 (stereo not drawn),"inconclusive [inhibitor, partial curve]",–
COC(=O)c1ccc(CSc2nc3sc(C(=O)O)c(C)c3c(=O)[nH]2)cc1,"inconclusive [inhibitor, partial curve]",–
Cc1[nH]c2ccccc2c1NC(=O)CN1CCN(c2cccc(C(F)(F)F)c2)CC1,"inconclusive [inhibitor, single point]",–
CC(=O)c1ccc(N2CCN(c3ccc(C(N)=O)cc3[N+](=O)[O-])CC2)cc1,inactive,–
O=C1c2ccccc2S(=O)(=O)N1CCCCN1CCN(c2ncccn2)CC1,"inconclusive [inhibitor, partial curve]",–
COC(=O)c1cn(CC(=O)N2C(C)CCCC2C)c2ccccc12 (stereo not drawn),"inconclusive [inhibitor, single point]",–
COc1ccc(C)cc1N1C(=N)/C(=C2/Nc3ccccc3S2)C(c2ccccc2)C1=O (stereo not drawn),"inconclusive [inhibitor, single point]",–
Cc1ccc(NC(=O)c2ccc(S(=O)(=O)NCC3CCCO3)cc2)cc1C (stereo not drawn),"inconclusive [inhibitor, single point]",–
O=C(CSc1nnc(-c2cccs2)o1)NCC1CN(Cc2ccccc2)CCO1 (stereo not drawn),"inconclusive [inhibitor, single point]",–
CN(CC(=O)O)Cc1c[nH]c2ccccc12,–,inactive: 18.8% [at 13.5 µM]
Cc1cc(NCCCO)n2nc(-c3cccs3)cc2n1,"inconclusive [inhibitor, partial curve]",–
C=C1c2ccccc2NC(=O)N1c1ccc(C)cc1,"inconclusive [inhibitor, single point]",–
COC(=O)c1sc2ccccc2c1NC(=O)c1cccs1,"inconclusive [inhibitor, single point]",–
COc1cc(-c2nc(-c3ccc(NC(=O)c4ccc5c(c4)OCO5)cc3)no2)cc(OC)c1OC,"inconclusive [inhibitor, single point]",–
CS(=O)(=O)N(CC(=O)NCCC1=CCCCC1)C1CCCCC1,"inconclusive [inhibitor, single point]",–
CCC(=O)c1ccc(OCC(=O)N2CCCC2)c(OC)c1,"inconclusive [inhibitor, single point]",–
CC(C)(C)NC(=S)NC(=O)C12CCC3CC(CC(C3)C1)C2,"inconclusive [inhibitor, single point]",–
O=C(CN1CCCc2ccccc21)N/N=C/c1ccccc1O,"inconclusive [inhibitor, partial curve]",–
Cc1nc(N2CCN(c3ccccn3)CC2)c2c(C)c(C(=O)Nc3ccc(F)cc3F)sc2n1,"inconclusive [inhibitor, single point]",–
COc1ccc(/C=C/N(CCc2ccc(OC)c(OC)c2)C(C)=O)cc1,"inconclusive [inhibitor, single point]",–

SMILES,Potency,"activity, negative = inhibition"
CC1=C(C(=O)Nc2ccc(F)c(F)c2)C(c2cccs2)NC(=S)N1 (stereo not drawn),active: 0.631 µM,–
CCC1OC2(C)OC(=N)C1(C#N)C(C#N)(C#N)C2c1ccccc1 (stereo not drawn),"inconclusive [inhibitor, partial curve]",–
CC(=O)n1cc([C@@H]2C=C(C(=O)N3CCOCC3)O[C@H](OCc3ccc(CO)cc3)C2)c2ccccc21,"inconclusive [inhibitor, partial curve]",–
CCOC(=O)c1cccc(NC(=O)CN(c2ccc(C)cc2)S(=O)(=O)c2c(C)noc2C)c1,active: 7.94 µM,–
COc1ccccc1-c1n[nH]c(=S)o1,"inconclusive [inhibitor, single point]",–
COc1ccc(CN2CSC(=S)N(Cc3ccc(OC)cc3)C2)cc1,"inconclusive [inhibitor, single point]",–
CCn1c(SCc2nc(-c3ccccc3)no2)nnc1-c1cccs1,inactive,–
CCCCCCC(=O)OCC(=O)c1ccc2c(c1)NC(=O)CO2,active: 3.55 µM,–
CN(C)S(=O)(=O)c1cc(NC(=O)CN2CCN(c3ccccc3F)CC2)ccc1Cl,"inconclusive [inhibitor, single point]",–
O=C(NCCN1CCCCC1)c1ccco1,inactive,–
CCC1(C)Cc2c(sc3c2c2ncnn2c2nnc(SCC(=O)NCc4ccco4)n32)CO1 (stereo not drawn),"inconclusive [inhibitor, single point]",–
O=C1CC(NCCN2CCOCC2)C(=O)N1Cc1ccc(N2CCCC2=O)cc1 (stereo not drawn),"inconclusive [inhibitor, partial curve]",–
Cc1ccnc(NC(=O)CCCOc2ccccc2)c1,"inconclusive [inhibitor, single point]",–
CC1CCN(c2ccc(S(=O)(=O)NC3=NCCCCC3)cc2[N+](=O)[O-])CC1,"inconclusive [inhibitor, single point]",–
Cc1ccc(S/C=C\C(=O)c2ccccc2)cc1,active: 20 µM,–
CCCOc1ccc(C(=O)NC(=S)Nc2nc3ccc(C)cc3s2)cc1,inactive,–
CCOC(=O)SC1=N/C(=C\c2ccc(N(C)C)cc2)C(=O)S1,active: 5.01 µM,–
CCCn1nc(C(=O)Nc2nc3ccccc3[nH]2)c2ccccc2c1=O,"inconclusive [inhibitor, single point]",–
O=C(CN(c1ccc(F)cc1)S(=O)(=O)c1ccc2c(c1)OCCO2)Nc1cccnc1,"inconclusive [inhibitor, single point]",–
COCCNCC#CCOc1ccc(OC)cc1,"inconclusive [inhibitor, single point]",–
Cc1cc([N+](=O)[O-])cnc1NC(C)c1ccccc1 (stereo not drawn),active: 22.4 µM,–
COc1ccccc1N1CCN(Cc2nc(N)nc(Nc3ccc(C)c(Cl)c3)n2)CC1,"inconclusive [inhibitor, single point]",–
